Assay results from PubChem BioAssay (NCATS).
Several values for one entry are separate records, joined by “and”; a condition that tells them apart may be missing. Identical values can stand only once. The inconclusive results got no clear call from the source; some entries with a clear call stand among them for comparison. Potencies of inconclusive entries are doubtful fits and often do not repeat. Activity calls are given as the source filed them. Calls come from the whole dose curve; as a rule, active = well fitted cell-killing curve with a large enough effect; inconclusive = small, poorly fitted or top-dose-only effect; inactive = no such curve, though single readings can be large or run the other way.

Experiment: qHTS of pediatric cancer cell lines to identify multiple opportunities for drug repurposing: Primary screen for Saos-2 cells (AID 1347097); note: nearly all actives have a fitted effect of over 40% in size
Conditions: Saos-2 viability, CellTiter-Glo ATP luminescence, 48 h; series mostly up to 46 µM; activity change, negative = cytotoxic: at the top concentration
From the text: Drug repurposing or repositioning has been offered as a strategy for drug development in oncology programs. This approach has special potential for childhood cancers and other rare or orphan diseases, where the expected return on new drug development has been a disincentive to pharmaceuticals. […] In this project we exploit the poly-pharmacology of drugs to discover new indications via phenotypic screening of a panel of 19 well-characterized cell lines derived from solid tumors seen in children and adolescents. The goal is to identify approved drugs with previously unrecognized anticancer properties that has the potential to reveal new mechanisms and biological processes involved in carcinogenesis or drug resistance. We employed a titration-based paradigm (quantitative high-throughput screening or qHTS), where all compounds were tested at multiple concentrations for their effect on cell viability. Concentration-response curves (CRCs) were derived directly from the primary screen, and both potency and efficacy values were used to identify compounds with robust bioactivity profiles. We screened the NIH Chemical Genomics Center (NCGC) Pharmaceutical Collection (NPC) and Mechanism Interrogation Plate (MIPE) small molecule collections of approved and investigational compounds against these cell lines; and measured metabolically active cells after 48 hours of compound treatment as a proxy for cell viability. […] Assay Submitter: Nathalia J. Martinez, National Center for Advancing Translational Sciences, National Institutes of Health, Rockville, MD, USA; email: natalia.martinez@nih.gov Shen, M et al. Quantitative high-throughput phenotypic screening of pediatric cancer cell lines identifies multiple opportunities for drug repurposing. Oncotarget 2017 Dec 19;9(4):4758-4772. PMID 29435139.
The cells were obtained from University of North Carolina (UNC), Pediatric Preclinical Testing Program (PPT), and Coriell Institute (CI). qHTS cell viability assay: Cells were assayed in growth media at a density of 500-1,000 cells/well. Five microliters of cells were dispensed into 1,536-well, white, solid-bottom, TC-treated plates (Greiner Bio One) using a multidrop dispenser and incubated at 37 degrees C, 5% CO2, under a humidified atmosphere for 5 hours. Twenty-three nanoliters of compounds and controls (neutral control DMSO or positive control bortezomib at final concentration of 2.3 µM) were subsequently transferred by Kalypsys pintool. For primary screens, the MIPE collection was tested at 11-point dilutions (final concentrations range from 0.78 nM to 46 µM) and the NPC collection at 8-point dilutions (final concentrations range from 0.59 nM to 46 µM). Compounds tested in follow-up screens were assayed at 11-point dilutions. Cells were incubated for 48 hours, followed by addition of 3 µL of CellTiter-Glo (Promega). After a 15 min incubation at room temperature, samples were analyzed for luminescence intensity using a ViewLux High-throughput CCD imager equipped with clear filters.
% is set by controls: 0 for no effect and ±100 for the full control effect; potency is the fitted concentration of half-maximal effect; tags give direction and shape of the fitted curve.

Row | SMILES | Potency | activity change, negative = cytotoxic
1 | Nc1ccc(C(=O)Nc2cccc(-c3nc(N4CCOCC4)c4oc5ncccc5c4n3)c2)cn1 | active: 8.33 µM | –
2 | O=C(Nc1ccc(Oc2ccnc3[nH]ccc23)c(F)c1)c1cccn(-c2ccc(F)cc2)c1=O | active: 20.9 µM | –
3 | O=C1NC(=O)C(=Cc2ccc3nccc(-c4ccncc4)c3c2)S1 | active: 0.372 µM | –
4 | CCN(CCCCOC(=O)c1ccc(OC)c(OC)c1)C(C)Cc1ccc(OC)cc1 (stereo not given) | inconclusive: 26.6 µM [cytotoxic, single point] | –
5 | C[C@H]1[C@H](O)O[C@@H]2O[C@@]3(C)CC[C@@H]4[C@H](C)CC[C@@H]1[C@@]24OO3 | active: 2.96 µM | –
6 | Cc1ccc(O)c2ncccc12 | active: 21.1 µM | –
7 | N#CCNC(=O)c1ccc(-c2ccnc(Nc3ccc(N4CCOCC4)cc3)n2)cc1 | inconclusive: 5.26 µM [cytotoxic, partial curve] | –
8 | OC[C@H]1O[C@@H](O[C@H]2[C@@H](O)[C@@](O)(CO)O[C@@H]2CO)[C@H](O)[C@@H](O)[C@@H]1O | – | inactive: -13.3%
9 | O[C@@H](c1cc(C(F)(F)F)nc2c(C(F)(F)F)cccc12)[C@H]1CCCCN1 | active: 21.1 µM | –
10 | COC(=O)[C@@H]1[C@H]2C[C@H]3c4[nH]c5ccccc5c4CCN3C[C@@H]2CC[C@@H]1O | inconclusive: 15 µM [cytotoxic, partial curve] | –
11 | CC[C@@H]1C(=O)N(C)c2cnc(Nc3ccc(C(=O)NC4CCN(C)CC4)cc3OC)nc2N1C1CCCC1 | active: 0.0469 µM | –
12 | COc1ccccc1[C@H](c1cccc2ccccc12)[C@@](C)(C#N)C(=O)N1CCC(c2cccc(C(F)(F)F)c2)CC1 | inconclusive: 3.32 µM [cytotoxic, full curve] | –
13 | CN1CCCC(n2nc(Cc3ccc(Cl)cc3)c3ccccc3c2=O)CC1 (stereo not given) | inconclusive: 15 µM [cytotoxic, partial curve] and active: 2.35 µM | –
14 | Nc1ccc(C(=O)NCC(=O)O)cc1 | – | inactive: -19.9%
15 | O=C1[C@H]2CCCC[C@H]2C(=O)N1CCCCN1CCN(c2nsc3ccccc23)CC1 | inconclusive: 26.6 µM [cytotoxic, single point] | –
16 | CC(C(=O)O)c1ccc(CC2CCCC2=O)cc1 (stereo not given) | – | inactive: -5.16%
17 | c1cc(CN2CCCNCCNCCCNCC2)ccc1CN1CCCNCCNCCCNCC1 | – | inactive: 8.44%
18 | COc1cnc(NS(=O)(=O)c2ccc(N)cc2)nc1 | inactive | –
19 | CC(C)CN(C[C@H](O)[C@H](Cc1ccccc1)NC(=O)O[C@H]1CCOC1)S(=O)(=O)c1ccc(N)cc1 | inconclusive: 18.7 µM [cytotoxic, partial curve] | –
20 | C=C1[C@H](n2cnc3c(=O)[nH]c(N)nc32)C[C@H](O)[C@H]1CO | inconclusive: 3.72 µM [cytotoxic, partial curve] | –

Row | SMILES | Potency | activity change, negative = cytotoxic
21 | COc1cc(C=C2CCC/C(=C\c3ccc(O)c(OC)c3)C2=O)ccc1O | active: 23.7 µM | –
22 | CN(C)CCOc1ccc(-c2nc(-c3ccc4c(c3)CCC4=NO)c(-c3ccncc3)[nH]2)cc1 | active: 23.5 µM | –
23 | OC[C@H]1O[C@@H](n2cnc3c(=S)nc[nH]c32)[C@H](O)[C@@H]1O | active: 15 µM | –
24 | Cc1cc2nc3c(=O)[nH]c(=O)nc-3n(C[C@H](O)[C@H](O)[C@H](O)CO)c2cc1C | – | inactive: -28.2% [at 16.1 µM]
25 | COc1ccc(-c2ccc3c(N4CCOCC4)nc(N4C[C@@H](C)O[C@@H](C)C4)nc3n2)cc1CO | inconclusive: 1.18 µM [cytotoxic, full curve] | –
26 | CC(C)(C)NC(=O)[C@H]1CC[C@H]2[C@@H]3CC[C@H]4NC(=O)C=C[C@]4(C)[C@H]3CC[C@]12C | inconclusive: 26.6 µM [cytotoxic, single point] and active: 14.8 µM | –
27 | O=C(c1ccc(OCCN2CCCCC2)cc1)c1c(-c2ccc(O)cc2)sc2cc(O)ccc12 | inconclusive: 26.6 µM [cytotoxic, single point] and active: 14.8 µM | –
28 | Cc1ccc(NC(=O)c2cccc(N(C)C)c2)cc1NC(=O)c1ccc(O)cc1 | inconclusive: 16.6 µM [cytotoxic, partial curve] | –
29 | COc1cccc2c(NCc3ccccc3)nc(-n3c(N)nc4ccccc43)nc12 | active: 3.72 µM | –
30 | CC1(C)O[C@@H]2C[C@H]3[C@@H]4C[C@H](F)C5=CC(=O)C=C[C@]5(C)[C@H]4[C@@H](O)C[C@]3(C)[C@]2(C(=O)CO)O1 | inconclusive: 29.9 µM [cytotoxic, single point] | –
31 | CCCCCCNC(=O)n1cc(F)c(=O)[nH]c1=O | inconclusive: 18.7 µM [cytotoxic, partial curve] | –
32 | CC(=O)N(O)CCCCCNC(=O)CCC(=O)N(O)CCCCCNC(=O)CCC(=O)N(O)CCCCCN | – | inactive: -27.4%
33 | O=C(CCCN1CCC(O)(c2cccc(C(F)(F)F)c2)CC1)c1ccc(F)cc1 | inconclusive: 23.7 µM [cytotoxic, single point] | –
34 | Cc1nn(Cc2ccccc2Cl)c(C)c1CN(C)CC(O)COc1ccc(Cl)cc1 (stereo not given) | – | inactive: -17.9%
35 | Nc1c2ccccc2nc2ccccc12 | inconclusive: 29.9 µM [cytotoxic, single point] | –
36 | Oc1c(Cl)cc(Cl)c2cccnc12 | inconclusive: 5.31 µM [cytotoxic, full curve, poor fit] | –
37 | CC#C[C@]1(O)CC[C@H]2[C@@H]3CCC4=CC(=O)CCC4=C3[C@@H](c3ccc(N(C)C)cc3)C[C@@]21C | inconclusive: 29.9 µM [cytotoxic, single point] | –
38 | Cc1ccc(S(=O)(=O)Nc2cc(Cl)ccc2C(=O)Nc2nc(-c3ccccc3)cs2)cc1 | active: 14.8 µM | –
39 | COc1cccc2c1C(=O)c1c(O)c3c(c(O)c1C2=O)C[C@@](O)(C(C)=O)C[C@@H]3O[C@H]1C[C@H](N)[C@H](O)[C@H](C)O1 | active: 0.266 µM | –
40 | CN1CCCN(C(c2ccccc2)c2ccc(Cl)cc2)CC1 (stereo not given) | inconclusive: 26.6 µM [cytotoxic, single point] | –
